# Test results from PubChem BioAssay AID1346428 (National Center for Advancing Translational Sciences (NCATS), 2018).
# Values joined by “and” are separate entries in the source; they are usually repeats but may differ in a detail not shown here. Identical values can stand only once. Out of some 48,000 compounds screened, about 1,200 (2.5%) were called active. About 2% were inconclusive and are not listed.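 The calls were made as follows: active = activation of at least 60% and not above a set upper limit (about 1 call in 100 departs from these limits); inconclusive = activation of 40% to 60%, or above that upper limit; inactive = activation under 40%.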 The list shows a part of the results.
# Target: Probable G-protein coupled receptor 32 (Homo sapiens) (UniProt O75388)
# Test: qHTS for Agonists of Human Resolvin D1 Receptor DRV1; also: 0% is about no effect
# Details: CHO-K1 GPR32 beta-arrestin PathHunter luminescence, 90 min; at 76.9 µM; stronger effect = higher value; zero percent set by DMSO-only wells
# Summary of the method: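 Engineered CHO-K1 line co-expressing GPR32-ProLink and EA-beta-arrestin. Compound treatment lasted 90 min at 37 °C. Luminescence was recorded after 1 h with substrate at ambient temperature, relative to DMSO basal wells.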
# UniProt O75388, sequence (O75388 whole entry, looked up): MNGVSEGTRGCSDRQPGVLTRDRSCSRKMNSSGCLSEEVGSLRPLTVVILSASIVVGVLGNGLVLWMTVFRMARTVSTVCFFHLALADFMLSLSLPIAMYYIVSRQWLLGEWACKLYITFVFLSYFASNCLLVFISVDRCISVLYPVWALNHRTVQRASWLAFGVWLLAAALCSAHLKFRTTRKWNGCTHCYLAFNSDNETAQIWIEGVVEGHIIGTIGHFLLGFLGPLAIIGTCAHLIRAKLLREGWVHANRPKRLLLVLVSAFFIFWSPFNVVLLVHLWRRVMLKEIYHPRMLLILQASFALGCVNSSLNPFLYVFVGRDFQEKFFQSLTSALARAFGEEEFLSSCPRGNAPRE
row,SMILES,activation
1,CN(C)S(=O)(=O)c1ccc(C(=O)Nc2ccc(-n3nncc3-c3ccccc3)cc2)cc1,inactive: -28.4%
2,COc1ccccc1N1CCN(C(=O)Cn2ncc3c(=O)oc4ccc(C)cc4c32)CC1,inactive: 10.8%
3,Cc1cccc(N2CCN(C(=O)CCSCc3ccccc3F)CC2)c1C,inactive: -26.4%
4,CC(=O)c1ccc(NC(=O)Cn2c(=O)n(Cc3ccco3)c(=O)c3sc4ccccc4c32)cc1,inactive: -9.79%
5,COc1ccc(-c2nsc(NC(=O)c3oc4cc(C)c(C)cc4c3C)n2)cc1,inactive: -13%
6,Cc1cccc(CNC(=O)c2cnc3sc(N4CCCCCC4)nn3c2=O)c1,inactive: -3.63%
7,Cc1ccc(N(Cc2cccs2)C(=O)COc2cccc(C)c2)cc1,inactive: -0.997%
8,CCN1CCN(c2cc(C)c3cc(NC(=O)c4cc(Cl)ccc4OC)ccc3n2)CC1,inactive: -11.4%
9,COc1ccc(C2=NC(C)(C)N(CC(=O)Nc3ccc(F)c(F)c3)C2=O)cc1,inactive: 15.4%
10,Cc1nn2c(=O)cc(COC(=O)CNC(=O)c3ccc(F)cc3)nc2s1,inactive: 6.51%
11,COc1cccc(OC)c1C(=O)Nc1ccc(S(=O)(=O)Nc2nccc(C)n2)cc1,inactive: 9.16%
12,Cc1ccc(OCC(O)Cn2c(=N)n(CCN3CCCCC3)c3ccccc32)cc1 (centres undefined),inactive: -1%
13,Cc1ccc(-n2ncc(C(=O)NCCCN3CCCCC3)c2C2CCN(C(=O)OC(C)(C)C)CC2)cc1,inactive: -12.5%
14,Cc1ccc(NC(=O)c2c(C)nc3sc(C(=O)Nc4ccc(F)cc4)c(N)c3c2-c2ccccc2Cl)c(C)c1,inactive: -5.7%
15,CCOC(=O)c1c(C)n(-c2ccccc2)c2ccc(OC(=O)c3ccccc3NC(=O)C(C)(C)C)cc12,inactive: -15.6%
16,CC1CCC(C(=O)NC(C(=O)OCC(=O)c2ccccc2)C(C)C)CC1 (centres undefined),inactive: 9.12%
17,CCN1CCc2nc3sc(C(=O)Nc4cccc(Cl)c4C)c(N)c3cc2C1,active: 121%
18,CCOc1cc(C(=O)OCc2cc(=O)n3nc(CC)sc3n2)cc(OCC)c1OCC,inactive: -15.7%
19,CCC(=O)N1CCc2cc(Br)cc(S(=O)(=O)N3CCCC(C(=O)Nc4ccc(C(C)C)cc4)C3)c21 (centres undefined),inactive: -6.79%
20,CCc1cnc2c(c1SCC(=O)c1ccccc1)c(=O)n(C)c(=O)n2C,inactive: -5.93%
21,CCCCC(=O)N(c1ccc2oc(C)c(C(C)=O)c2c1)S(=O)(=O)c1ccc(F)cc1C,inactive: -7.49%

row,SMILES,activation
1,COC(=O)c1ccccc1NC(=O)c1c(C)oc2ncn(C)c(=O)c12,inactive: -1.84%
2,COc1ccc(OCc2nc3ccccc3n2Cc2ccccc2Cl)cc1,inactive: -5.17%
3,COc1ccc(-c2ccc(NS(=O)(=O)c3ccc(OC)c(OC)c3)cc2)nn1,inactive: 9.41%
4,CCOc1sc2nc(C)n(CC(=O)Nc3cccc(C)c3)c(=O)c2c1C,inactive: 11.3%
5,Cc1scc2c1N(C(=O)CN1CCN(C)CC1)c1ccccc1NC2=O,inactive: -14.1% and inactive: -2.24%
6,Cc1c(C(=O)NCc2cccc(Cl)c2)sc2nc3n(c(=O)c12)CCC3,inactive: -14.4%
7,Cc1cn2c(=O)cc(COc3ccccc3NC(=O)c3ccco3)nc2s1,inactive: -8.96%
8,Cc1cc2c(cc1Cl)N(C(=O)Nc1ccc(Oc3cccnc3C)nc1)CC2,inactive: 9.3%
9,Cc1ccc(CNS(=O)(=O)c2cc3[nH]c(=O)c(=O)[nH]c3cc2C)cc1,inactive: 19.5%
10,Cc1ccc(S(=O)(=O)NC2(C(F)(F)F)C(=O)Nc3c2c(=O)[nH]c(=O)n3-c2ccccc2)cc1 (centres undefined),inactive: -1.06%
11,O=S(=O)(c1ccc(Br)cc1)c1nnn2c1nc(N1CCOCC1)c1sccc12,inactive: -6.95%
12,CCN1CCN(CCCNC(=O)c2cnn(-c3ccc(C)cc3C)c2C2CCN(C(=O)OC(C)(C)C)CC2)CC1,inactive: -7.82%
13,NC(=O)c1nc(-c2ccc(F)c(F)c2)nc2c1[nH]c(=O)n2-c1cccc(Cl)c1,inactive: -0.306%
14,CSc1nc2sc3c(c2c(=O)n1Cc1ccccc1)CCC(C(C)(C)C)C3 (centres undefined),inactive: 9.83%
15,O=C(COC(=O)c1cc(-c2ccccc2)nc2ccccc12)c1ccc(Br)cc1,inactive: 3.34%
16,Cc1ccc(C(=O)Nc2ccc3nc(SCC(=O)N4CCCc5ccccc54)sc3c2)cc1,inactive: -20.5%
17,Cc1ccc(Cl)cc1NC(=O)c1cnc(N2CCCCC2)c2ccccc12,inactive: -11.5%
18,CCCC(=O)NCC1(N(C)C)CCCCC1,inactive: -4.75%
19,CCOC(=O)C1CCN(S(=O)(=O)c2cc(Br)cc3c2N(C(=O)CC)CC3)CC1,inactive: -10.1%
20,N#Cc1ccc(C(=O)Nc2cc3nn(-c4ccccc4)nc3cc2Cl)c(F)c1,inactive: -15.2%
21,COc1ccc(-c2nc3scc(CCNS(=O)(=O)c4ccc(C)cc4)n3n2)cc1,inactive: 10.2%

row,SMILES,activation
1,CCOc1cc2sc(N3CCC(C(=O)Nc4ccc(C)cc4C)CC3)nc2cc1Br,inactive: -5.1%
2,CCN1CCN(c2ncc3c(n2)CCN(Cc2cc(F)cc(F)c2)C3)CC1,inactive: -28.9%
3,COc1ccccc1NC(=O)C(=O)NCC(c1ccc2c(c1)OCO2)N1CCN(C)CC1 (centres undefined),inactive: -10.6%
4,O=C(N[C@@H](Cc1ccccc1)C(=O)CCl)OCc1ccccc1,inactive: -3.95%
5,COc1ccc(NC(=O)C(=O)NCCc2csc(-c3ccc(Cl)cc3)n2)cc1OC,inactive: -0.161%
6,Cc1ccc(S(=O)(=O)NC(=O)NC2CCCC2)cc1,inactive: -25%
7,Cc1cccc(C(=O)Nc2c(-c3ccccc3)nc3cc(C)ccn23)c1,inactive: -16.1%
8,COc1ccc(S(=O)(=O)N(CC(=O)Nc2ccccc2Br)Cc2ccccc2)cc1,inactive: -4.91%
9,Cn1c(=NC(=O)c2ccc(S(=O)(=O)N3CCCc4ccccc43)cc2)sc2cc(F)ccc21,inactive: -2.02%
10,CC(C)OCCCn1c(=O)c2ccccc2n2c(-c3ccc(F)cc3)nnc12,inactive: -5.63%
11,CCCCCCCC/C=C/C(=O)O,inactive: -13.4%
12,CCOC(=O)COc1ccc([N+](=O)[O-])cc1-c1ccnc2cc(-c3ccc(Cl)cc3)nn12,inactive: -1.69%
13,COC(=O)c1ccc(NC(=O)CSc2nc(=O)[nH]c3c2CCCC3)cc1,inactive: -1.64%
14,CCc1ccc(CN(Cc2ccco2)c2cnc(S(C)(=O)=O)nc2C(=O)Nc2cccc(C)c2)cc1,inactive: -18%
15,CN(C)c1ccc(C(CNC(=O)c2ccccc2)N2CCc3ccccc32)cc1 (centres undefined),inactive: -28.6%
16,COc1ccccc1CNc1nc(-c2ccco2)nn1S(=O)(=O)c1ccc2ccccc2c1,inactive: -18.8%
17,Cc1cccc(-c2noc(-c3ccccc3OCC(=O)Nc3ccc([N+](=O)[O-])cc3)n2)c1,inactive: -2.95%
18,CCC1=Nc2cc(C(=O)NCCCOC)ccc2Sc2ccc(Br)cc21,inactive: -9.48%
19,Cc1ccccc1C(=O)Nc1sc2c(c1C(=O)NCc1ccco1)CCC(C(C)(C)C)C2 (centres undefined),inactive: -18.6%
20,CNC(=O)C1CCC(Cn2c(=O)c3sccc3n(CC(=O)NCc3ccccc3)c2=O)CC1 (centres undefined),inactive: -1.99%
21,COCCCNC(=O)c1oc2c(c1C)-c1nn(Cc3ccccc3Cl)cc1CC2,inactive: -21.9%

row,SMILES,activation
1,O=C(c1cccs1)N(Cc1cccnc1)c1nc2c(F)cc(F)cc2s1,inactive: -13.3%
2,CCn1cc2nc(SCc3ccc(F)cc3)n(CCc3ccccc3)c(=O)c2n1,inactive: 12.5%
3,CCN(CCCNC(=O)c1ccc(Sc2ccc(Cl)cc2)c(NC(C)=O)c1)c1ccccc1,inactive: -32.9%
4,COc1ccc(-c2nc(CSc3nnc(C)n4c3cc3oc(C)cc34)c(C)o2)cc1OC,inactive: -8.93%
5,CCN(CC)S(=O)(=O)c1nnc(NC(=O)c2ccc(Br)cc2)s1,inactive: 36%
6,O=S(=O)(c1ccccc1)c1nc(-c2cccc(Cl)c2)oc1N1CCOCC1,inactive: -2.3%
7,COc1ccc(CCNC(=O)C2CCCN(S(=O)(=O)c3ccc4c(c3)oc(=O)n4C)C2)cc1OC (centres undefined),inactive: -2.98%
8,CCOc1ccc(-c2cc3nc(C4CCN(C(=O)OC(C)(C)C)CC4)c(C(=O)Nc4c(C)cccc4C)cn3n2)cc1,inactive: -5.7%
9,Cc1ccc2c(Br)cc(Br)c(O)c2n1,inactive: -76.7%
10,Cc1ccc(CNC(=O)CCc2cn(Cc3ccc(C)cc3)c3ccccc23)cc1,inactive: -18.5%
11,CCOC(=O)c1c(C)sc(-c2c(-c3cccc(Cl)c3)[nH]c3c2c(=O)n(C)c(=O)n3C)c1O,inactive: -1.43%
12,COc1ccc(NC(=O)C2=C(C)Nc3ncnn3C2c2ccc[nH]2)cc1 (centres undefined),inactive: 18.4%
13,CCC(=O)Nc1ccccc1-c1nc2ccccc2n(C(CC)C(=O)Nc2cccc(Cl)c2)c1=O (centres undefined),inactive: -30.4%
14,Cc1cc(C)c(Cn2c(=O)n(CCCCC(=O)NCc3ccccc3Cl)c(=O)c3ccccc32)c(C)c1,inactive: -1.21%
15,Fc1ccc2c(c1)-c1c(cnc3cc(-c4ccc(Cl)cc4)nn13)CO2,inactive: -4.84%
16,CC(=O)N1CCc2cc(CNC(=O)Nc3ccc(Br)c(C)c3)ccc21,inactive: -13.1%
17,COc1cccc(NC(=O)c2csnn2)c1,inactive: 10.9%
18,CC(=O)Nc1ccc(NC(=O)C2CCN(c3cnccn3)CC2)cc1,inactive: 16.4%
19,Cc1c(C(=O)N(C)C)sc2c1c(=O)n(-c1ccc(F)cc1)c(=O)n2Cc1ccccc1C#N,inactive: -4.94%
20,CCc1ccccc1N(C)S(=O)(=O)c1ccc2c(c1)C(C)(C)C(=O)N2C,inactive: 30.6%
21,COc1ccc(CCN2C(=O)c3[nH]nc(-c4ccccc4O)c3C2c2ccccc2)cc1 (centres undefined),inactive: 11.2%
